Experimental data taken from the supplement of paper PMC12217912.
This is one part of the list. Sequences were assembled here from the parent chain. Values near 0.05 are background.

B1: TEV protease; numbered along this chain (parent)
chain: MGESLFKGPRDYNPISSSICHLTNESDGHTTSLYGIGFGPFIITNKHLFRRNNGTLVVQSLHGVFKVKDTTTLQQHLVDGRDMIIIRMPKDFPPFPQKLKFREPQREERICLVTTNFQTKSMSSMVSDTSCTFPSGDGIFWKHWIQTKDGQCGSPLVSTRDGFIVGIHSASNFTNTNNYFTSVPKNFMELLTNQEAQQWVSGWRLNADSVLWGGHKVFMVKPEEPFQPVKEATQL

Variants of: B1
Assay: raw area under fraction-flipped curve 0-4 h after induction (AUC4h, not background-subtracted), DNA-recorder readout of cleavage of the substrate (dimensionless); higher = more cleavage of the substrate by the protease variant
Settings: temperature: 34 °C; time window: 0-4 h after rhamnose induction
Protocol: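 In vivo DNA recorder in E. coli TOP10(DE3) ΔrhaA at 34 °C. Each TEVp single-site mutant (parent TEVp 0) is paired with a single-site variant of the 7-mer TEVs (canonical ENLYFQ|S). The substrate sits between flexible linkers in a Bxb1-sfGFP-TEVs-SsrA fusion, so cleavage stabilises Bxb1 and speeds flipping of a recombination array, read by NGS. The value is the raw area under the fraction-flipped curve over 0-4 h after rhamnose induction (AUC4h), with ≥20 reads per time point. It is not background-subtracted; inactive controls average about 0.047.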
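Further: Bxb1 expression induced with 0.2% (w/v) L-rhamnose at OD600 near 0.5, cultures sampled hourly, flipped fraction per protease–substrate barcode pair counted by paired-end Illumina sequencing.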

| Variant | area with substrate ENAYFQS | area with substrate ENDYFQS | area with substrate ENEYFQS | area with substrate ENGYFQS | area with substrate ENHYFQS | area with substrate ENMYFQS | area with substrate ENRYFQS | area with substrate ENTYFQS | area with substrate ENVYFQS | area with substrate ENCYFQS | area with substrate ENFYFQS | area with substrate ENKYFQS | area with substrate ENNYFQS | area with substrate ENPYFQS | area with substrate ENQYFQS | area with substrate ENSYFQS | area with substrate ENYYFQS | area with substrate ENIYFQS | area with substrate ENWYFQS |
| --- | --- | --- | --- | --- | --- | --- | --- | --- | --- | --- | --- | --- | --- | --- | --- | --- | --- | --- | --- |
| MGESLFKGPRDYNPISSSICHLTNESDGHTTSLYGIGFGPFIITNKHLFRRNNGTLVVQSLHGVFKVKDTTTLQQHLVDGRDMIIIRMPKDFPPFPQKLKFREPQREERICLVTTNFQTKSMSSMVSDTSCTFPSGDGIFWKHWRQTKDGQCGSPLVSTRDGFIVGIHSASNFTNTNNYFTSVPKNFMELLTNQEAQQWVSGWRLNADSVLWGGHKVFMVKPEEPFQPVKEATQL [I145R] | 0.0643 | 0.0736 | 0.0463 | 0.042 | 0.0637 | 0.0517 | 0.0609 | 0.0541 | 0.0519 |  |  |  |  |  |  |  |  |  |  |
| MGESLFKGPRDYNPISSSICHLTNESDGHTTSLYGIGFGPFIITNKHLFRRNNGTLVVQSLHGVFKVKDTTTLQQHLVDGRDMIIIRMPKDFPPFPQKLKFREPQREERICLVTTNFQTKSMSSMVSDTSCTFPSGDGIFWKHWTQTKDGQCGSPLVSTRDGFIVGIHSASNFTNTNNYFTSVPKNFMELLTNQEAQQWVSGWRLNADSVLWGGHKVFMVKPEEPFQPVKEATQL [I145T] | 0.0615 | 0.0565 | 0.059 | 0.0605 | 0.0536 | 0.0923 | 0.0611 | 0.0601 | 0.0715 | 0.0647 | 0.0617 | 0.0656 | 0.0661 | 0.0559 | 0.0532 | 0.0548 | 0.0615 |  |  |
| MGESLFKGPRDYNPISSSICHLTNESDGHTTSLYGIGFGPFIITNKHLFRRNNGTLVVQSLHGVFKVKDTTTLQQHLVDGRDMIIIRMPKDFPPFPQKLKFREPQREERICLVTTNFQTKSMSSMVSDTSCTFPSGDGIFWKHWIQTKGGQCGSPLVSTRDGFIVGIHSASNFTNTNNYFTSVPKNFMELLTNQEAQQWVSGWRLNADSVLWGGHKVFMVKPEEPFQPVKEATQL [D149G] | 0.0513 | 0.0597 | 0.0602 | 0.0518 | 0.0621 | 0.066 | 0.0597 | 0.0525 | 0.115 | 0.0572 | 0.0637 | 0.067 | 0.0583 | 0.0786 | 0.0573 | 0.0562 |  | 0.0761 | 0.0059 |
| MGESLFKGPRDYNPISSSICHLTNESDGHTTSLYGIGFGPFIITNKHLFRRNNGTLVVQSLHGVFKVKDTTTLQQHLVDGRDMIIIRMPKDFPPFPQKLKFREPQREERICLVTTNFQTKSMSSMVSDTSCTFPSGDGIFWKHWIQTKDCQCGSPLVSTRDGFIVGIHSASNFTNTNNYFTSVPKNFMELLTNQEAQQWVSGWRLNADSVLWGGHKVFMVKPEEPFQPVKEATQL [G150C] | 0.0481 | 0.0489 |  | 0.0607 | 0.0599 | 0.0388 | 0.0647 | 0.0553 | 0.0534 | 0.0634 | 0.0588 | 0.0619 | 0.0617 |  | 0.0594 | 0.0589 |  | 0.0632 | 0.0595 |
| MGESLFKGPRDYNPISSSICHLTNESDGHTTSLYGIGFGPFIITNKHLFRRNNGTLVVQSLHGVFKVKDTTTLQQHLVDGRDMIIIRMPKDFPPFPQKLKFREPQREERICLVTTNFQTKSMSSMVSDTSCTFPSGDGIFWKHWIQTKDNQCGSPLVSTRDGFIVGIHSASNFTNTNNYFTSVPKNFMELLTNQEAQQWVSGWRLNADSVLWGGHKVFMVKPEEPFQPVKEATQL [G150N] | 0.0566 | 0.0566 | 0.0544 | 0.0602 | 0.0532 | 0.0564 | 0.0188 |  |  |  |  |  | 0.0568 | 0.0576 | 0.0588 | 0.0569 | 0.0668 | 0.0627 |  |
| MGESLFKGPRDYNPISSSICHLTNESDGHTTSLYGIGFGPFIITNKHLFRRNNGTLVVQSLHGVFKVKDTTTLQQHLVDGRDMIIIRMPKDFPPFPQKLKFREPQREERICLVTTNFQTKSMSSMVSDTSCTFPSGDGIFWKHWIQTKDTQCGSPLVSTRDGFIVGIHSASNFTNTNNYFTSVPKNFMELLTNQEAQQWVSGWRLNADSVLWGGHKVFMVKPEEPFQPVKEATQL [G150T] | 0.0643 | 0.0616 | 0.069 | 0.0696 | 0.0595 | 0.0689 | 0.05 | 0.0656 | 0.0562 | 0.0695 | 0.061 | 0.0498 | 0.0645 | 0.0666 | 0.0586 | 0.0627 | 0.0569 | 0.0621 |  |
| MGESLFKGPRDYNPISSSICHLTNESDGHTTSLYGIGFGPFIITNKHLFRRNNGTLVVQSLHGVFKVKDTTTLQQHLVDGRDMIIIRMPKDFPPFPQKLKFREPQREERICLVTTNFQTKSMSSMVSDTSCTFPSGDGIFWKHWIQTKDGQRGSPLVSTRDGFIVGIHSASNFTNTNNYFTSVPKNFMELLTNQEAQQWVSGWRLNADSVLWGGHKVFMVKPEEPFQPVKEATQL [C152R] | 0.0586 | 0.0594 |  |  | 0.0662 |  |  |  |  | 0.0627 |  | 0.0671 | 0.0573 | 0.07 |  | 0.0717 |  |  | 0.0475 |
| MGESLFKGPRDYNPISSSICHLTNESDGHTTSLYGIGFGPFIITNKHLFRRNNGTLVVQSLHGVFKVKDTTTLQQHLVDGRDMIIIRMPKDFPPFPQKLKFREPQREERICLVTTNFQTKSMSSMVSDTSCTFPSGDGIFWKHWIQTKDGQTGSPLVSTRDGFIVGIHSASNFTNTNNYFTSVPKNFMELLTNQEAQQWVSGWRLNADSVLWGGHKVFMVKPEEPFQPVKEATQL [C152T] | 0.0601 | 0.0605 | 0.0452 | 0.0642 | 0.0605 | 0.0568 | 0.0398 |  |  | 0.0615 | 0.0685 | 0.0641 | 0.0582 |  | 0.0674 | 0.0363 | 0.0613 | 0.0613 | 0.0032 |
